# In paper PMC4336329 (PLoS ONE, 2015):
# Screen size: about 310,000 compounds; about 14,000 (4.5%) showed an effect of 50% or more. Effects have a minus sign here. Some of the results follow.
# Molecular target: human ether-à-go-go-related gene (hERG) potassium channel (human, UniProt Q12809)
# Experiment: primary screen, population patch clamp on CHO cells stably expressing hERG
# 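Note: peak tail current of the secondary pulse compared with the same well before compound.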
# human ether-à-go-go-related gene (hERG) potassium channel, sequence (Q12809 whole entry, looked up): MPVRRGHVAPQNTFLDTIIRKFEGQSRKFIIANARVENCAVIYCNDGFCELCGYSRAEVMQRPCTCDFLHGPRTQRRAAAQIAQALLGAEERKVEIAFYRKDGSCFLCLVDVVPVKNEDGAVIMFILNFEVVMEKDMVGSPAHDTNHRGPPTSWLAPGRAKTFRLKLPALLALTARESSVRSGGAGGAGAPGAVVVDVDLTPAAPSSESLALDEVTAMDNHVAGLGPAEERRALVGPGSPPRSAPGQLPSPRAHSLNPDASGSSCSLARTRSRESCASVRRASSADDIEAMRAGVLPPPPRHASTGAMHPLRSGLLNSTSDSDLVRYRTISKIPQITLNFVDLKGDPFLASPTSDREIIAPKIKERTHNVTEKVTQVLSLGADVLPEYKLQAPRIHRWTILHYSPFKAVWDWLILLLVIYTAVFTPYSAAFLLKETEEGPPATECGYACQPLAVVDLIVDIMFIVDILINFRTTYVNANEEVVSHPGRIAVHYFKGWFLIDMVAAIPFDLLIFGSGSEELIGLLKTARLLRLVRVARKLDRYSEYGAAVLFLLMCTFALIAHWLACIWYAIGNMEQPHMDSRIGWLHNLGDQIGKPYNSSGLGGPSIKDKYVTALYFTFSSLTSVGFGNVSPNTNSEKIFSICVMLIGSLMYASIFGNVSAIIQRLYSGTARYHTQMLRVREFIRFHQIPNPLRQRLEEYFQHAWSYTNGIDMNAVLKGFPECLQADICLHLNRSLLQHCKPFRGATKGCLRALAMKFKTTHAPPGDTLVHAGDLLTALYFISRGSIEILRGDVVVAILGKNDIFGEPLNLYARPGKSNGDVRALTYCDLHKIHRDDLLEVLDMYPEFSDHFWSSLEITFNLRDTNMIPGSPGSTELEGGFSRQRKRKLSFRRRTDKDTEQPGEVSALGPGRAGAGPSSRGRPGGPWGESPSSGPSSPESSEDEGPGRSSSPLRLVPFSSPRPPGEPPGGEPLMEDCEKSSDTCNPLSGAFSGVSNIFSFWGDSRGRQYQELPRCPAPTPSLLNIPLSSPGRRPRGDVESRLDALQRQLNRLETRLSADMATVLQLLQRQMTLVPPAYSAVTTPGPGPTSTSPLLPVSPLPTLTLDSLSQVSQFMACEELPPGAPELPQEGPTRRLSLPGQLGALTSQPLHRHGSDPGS
row,SMILES,"hERG current change (%, negative = inhibition) at 10uM"
1,Cc1onc(-c2ccccc2)c1C(=O)Nc1nnc(-c2ccncc2)s1,-4.28%
2,COC(=O)c1nn(-c2ccccc2)c(-c2ccccc2)c1C(=O)c1ccccc1,-4.63%
3,COc1ccc(CNC(=O)c2cc(C(C)=O)c[nH]2)cc1,4.25%
4,Cc1cc(Cl)ccc1N=C1N=C(N)c2ccccc21,-17.5%
5,CC(C)(C)N(Cc1ccccc1)C(=O)c1cc2ccccc2o1,8.27%
6,O=C(CSc1ccc(Cl)cc1Cl)N1CCC(c2nc3ccccc3s2)CC1,-14.5%
7,CCN(CC)C(=O)CSc1nnc(CNc2ccc(F)cc2)n1-c1ccccc1,-0.688%
8,Cc1ccccc1N1CCN(S(=O)(=O)c2cccs2)CC1,-6.39%
9,CCOc1ccc(C(=O)NCC(=O)OCC(=O)Nc2ccccc2OC)cc1,-18.1%
10,COc1ccccc1C(=O)N/N=C(\C)CC(=O)Nc1ccc2c(c1)OCCO2,11.6%
11,O=C(COC(=O)c1ccccc1SCC(=O)NC1CCS(=O)(=O)C1)NC1CCS(=O)(=O)C1 (centres unmarked),18.7%
12,O=C(COc1ccc(Cl)cc1Cl)Nc1ccc(S(=O)(=O)NC2=NCCCCC2)cc1,-17%
13,COc1cc2c(cc1NC(=O)COC(=O)CNC(=O)c1ccccc1)oc1ccccc12,20.2%
14,COc1ccc([N+](=O)[O-])cc1NC(=O)CC1SC(=Nc2cccc(C)c2C)N(/N=C(\C)c2ccc(C)cc2)C1=O (centres unmarked),5.95%
15,O=C(c1ccc(S(=O)(=O)N2CCCC2)cc1)N1CCN(c2ccccc2)CC1,-7.94%
16,Cc1ccc(C(=O)COC(=O)c2ccc3c(c2)C(=O)N(c2cccc4ncccc24)C3=O)cc1,20.2%
17,COC(=O)c1ccsc1NC(=O)CN1CCN(c2ccc(F)cc2)CC1,-1.13%
18,COc1ccccc1N1CCN(C(=O)c2ccccc2N(C)S(=O)(=O)c2ccc(C)cc2)CC1,-13%
19,COc1ccc(C2=NN(C(C#N)c3ccc(OC)cc3)C(c3ccccc3)C2)cc1 (centres unmarked),-4.73%
20,COc1ccc(-c2cc(C(=O)NCC(c3ccco3)N(C)C)c3ccccc3n2)cc1OC (centres unmarked),-14.5%
21,CCN1CCc2c(C#N)c(N3CCCCC3)nc(NCc3ccccc3)c2C1,-39.8%
22,O=C(NCC(=O)N1CCC2(CC1)NCCc1[nH]cnc12)c1ccc(F)cc1,14.9%

row,SMILES,"hERG current change (%, negative = inhibition) at 10uM"
1,O=C(CCCn1c(=O)c2sccc2n(Cc2cc(=O)n3ccccc3n2)c1=O)NCc1ccco1,-3.96%
2,CCOC(=O)Cn1c(=NC(=O)c2sc3ccccc3c2Cl)sc2cc(S(N)(=O)=O)ccc21,4.82%
3,CCOc1cc(S(=O)(=O)N2CCCCCC2)ccc1F,-35%
4,Cn1c(CNC(=O)c2ccc(F)cc2)cc2ccccc21,3.45%
5,O=C(c1ccc(COc2ccc3ccccc3c2)o1)N1N=C(C(F)F)CC1(O)C(F)F (centres unmarked),-2.62%
6,CN1N=C(c2ccc(Cl)cc2)CC(c2ccc(Cl)cc2)C1=O (centres unmarked),-2.95%
7,CCCCNC(=O)c1ccc2c(=O)n(CCCOCC)c(=S)[nH]c2c1,-12.4%
8,CCC(C)NC(=O)C1CCN(S(=O)(=O)N2CCOCC2)CC1 (centres unmarked),22.8%
9,Cc1ccc(C(=O)NC2CC3CCC(C2)N3Cc2ccco2)cc1 (centres unmarked),-46.5%
10,CCCCn1nc(C(=O)OCC(=O)Nc2sccc2C(N)=O)c2ccccc2c1=O,-15.8%
11,COC(=O)[C@@H](NC(=O)N1CCC(Cc2ccccc2)CC1)C(C)C,-1.62%
12,CC(=O)N(c1ccc2oc(=O)sc2c1)S(=O)(=O)c1ccc(C(=O)O)cc1,10.1%
13,NC(=O)c1ccc(NC(=O)COC(=O)c2ccc(Br)o2)cc1,-13.4%
14,COc1ccc(-c2cn(Cc3ccc(C(N)=O)cc3)c(-c3ccncc3)n2)cc1,-60.1%
15,COc1ccc(C(=O)N2CCCC(Nc3ccc(C)c(C)c3)C2)c(OC)n1 (centres unmarked),-17.7%
16,CC(C)c1ccc(NC(=S)Nc2ccc3[nH]c(=O)[nH]c3c2)cc1,7.59%
17,Cc1nn(CC(=O)O)c(C)c1NC(=O)c1cccs1,21.6%
18,O=C(OCC(=O)N1CCCCCC1)c1ccc(S(=O)(=O)N2CCOCC2)cc1,0.238%
19,Cc1ccc(NC(=O)Nc2ccccc2C(N)=O)cc1,15.6%
20,Cc1cccc(OCC(=O)NCC(=O)N/N=C/c2cc(Br)ccc2OCc2ccccc2)c1,7.04%
21,COc1ccccc1-c1noc(CCC(=O)NC2CCCCC2)n1,6.96%
22,O=C1Nc2ccc(S(=O)(=O)N3CCCCCC3)c3cccc1c23,9.17%

row,SMILES,"hERG current change (%, negative = inhibition) at 10uM"
1,O=C(NCCN1CCOCC1)c1ccc(Cl)c(S(=O)(=O)N2CCCCC2)c1,-58.3%
2,CCC1(O)c2ccccc2-c2ncccc21 (centres unmarked),4.06%
3,COC(=O)Cc1ccc(NC(=S)N2CCN(C(=O)C3CCCO3)CC2)cc1 (centres unmarked),8.34%
4,O=C(NCC(c1ccco1)N1CCCC1)c1ccc(S(=O)(=O)Nc2ccccc2F)cc1 (centres unmarked),-8.56%
5,Cc1ccc(N(CN2CCCC2=O)C(=O)c2ccc(C)c(C)c2)cc1,-8.68%
6,COc1cccc(-c2cc(C(=O)N3CCN(Cc4ccccc4)CC3)no2)c1,-15.7%
7,CC(=O)C1=C(C)NC(=O)NC1c1ccccc1OCC(=O)NCCc1ccccc1 (centres unmarked),-6.63%
8,COC(=O)CS(=O)(=O)c1ccsc1C(=O)Nc1ccc(F)c(F)c1,12.9%
9,CCOC(=O)c1c(NC(=O)CN2C(=O)NC3(CCC(C)CC3)C2=O)sc(C(=O)N(C)C)c1C (centres unmarked),-36.7%
10,COc1cccc(OC)c1C(=O)Nc1nc2ccc([N+](=O)[O-])cc2s1,18.5%
11,Cc1cccc(-c2noc(-c3ccc4c(c3)OCO4)n2)c1,7.53%
12,CCCC(=O)Nc1ccc(N2CCN(C(=O)CCC)CC2)cc1,-16.5%
13,Cl.O=S1(=O)CCC(NC2CCCC2)C1 (centres unmarked),-44.2%
14,c1ccc(-c2nc3nc4ccccc4nc3n2CC2CCCO2)cc1 (centres unmarked),-1.81%
15,COc1cc(/C=C/c2ccc3cccc([N+](=O)[O-])c3n2)ccc1OCC#N,1.18%
16,O=C(COc1ccc2c3c(c(=O)oc2c1)CCC3)c1ccc2c(c1)OCO2,-5.8%
17,CCOC(=O)C1CCN(C(=O)c2cccnc2Oc2ccccc2)CC1,2.49%
18,COc1ccc(OC)c(Cc2nnc(CCC(=O)NCc3ccc(C)s3)o2)c1,-5.32%
19,Cc1ccc(C(O)(COC(=O)C(C)C)COC(=O)C(C)C)c(O)c1,3.76%
20,CCOc1cc(-c2sc(Nc3ccc(CC)cc3)n[n+]2-c2ccccc2)ccc1OC.[Cl-],-78.7%
21,Cc1cccc(NC(=O)CSc2ccc(-c3cccs3)nn2)c1C,-2.04%
22,Cn1ncc(C(=O)Nc2ccc(Cl)cc2)c1C(F)(F)F,-12%

row,SMILES,"hERG current change (%, negative = inhibition) at 10uM"
1,CC12CCC(=O)N1C(C(=O)Nc1ccccc1N1CCCCC1)CS2 (centres unmarked),-15.9%
2,CCC(=O)N=c1n(C)c2ccccc2n1CCOc1ccccc1,-6.66%
3,CCOC(=O)CNc1nc(Cl)c(C#N)s1,1.49%
4,CCCCN(C(=O)c1ccc(N2CCCC2=O)cc1)c1c(N)n(CC(C)C)c(=O)[nH]c1=O,3.67%
5,COc1ccc(OC)c(S(=O)(=O)NCCS(=O)(=O)N2CCN(c3ccccc3)CC2)c1,-1.2%
6,CCOc1nc(-c2ccc(Cl)cc2Cl)ccc1C#N,-1.99%
7,O=C(CN1C(=O)/C(=C/c2cccc(Br)c2)SC1=S)NC1=NCCS1,26%
8,COc1ccccc1C(=O)Nc1cccc2nc(C)ccc12,8%
9,Nc1cc(-c2ccc(Br)cc2)[nH]n1,-1.2%
10,COc1ccc(S(=O)(=O)N2CCC(C(=O)N[C@@H](C)C(=O)NCc3ccncc3)CC2)cc1,11.1%
11,O=C(CNC(=O)c1cncc(Br)c1)Nc1ccc(F)c(F)c1F,8.94%
12,COC(=O)C1CN(S(=O)(=O)c2ccc(C)cc2)CCN1S(=O)(=O)c1ccc(C)cc1 (centres unmarked),17.2%
13,Cc1ccccc1Nc1nc(N)nc(CSc2nnnn2-c2ccccc2)n1,-26.5%
14,Cc1cc(C)n2c(SCC(=O)Nc3ccccc3C#N)nnc2n1,5.73%
15,N#Cc1ccc(Oc2ccc(-c3cnc4ccccc4n3)cc2)cc1C#N,-9.33%
16,C=CCn1c(SCC(=O)O)nnc1-c1cccc(Cl)c1,4.71%
17,c1ccc(Sc2ncnc3ccccc23)cc1,-1.28%
18,O=C(/C=C/c1ccccc1)c1ccccc1O,6.1%
19,Cc1ccc(NC(=O)[C@H](C)NC(=O)C2CCN(C(=O)[C@@H](NC(=O)OC(C)(C)C)C(C)C)CC2)cc1,2.13%
20,COc1ccc(C(=O)c2cn[nH]c2-c2ccc(C)cc2O)cc1,-2.49%
